# Source: the RNAGym collection of RNA variant scans (doi:10.1093/nar/gkz1192)
# The source gives no read counts; variants with many changes may rest on few reads.
# B1: CPEB3 Ribozyme (parent)
# chain: UAACAGGGGGCCACAGCAGAAGCGUUCACGUCGCAGCCCCUGUCAGAUUCUGGUGAAUCUGCGAAUUCUGCUGUAUAUCUC
# Variants of: B1
# Assay: self-cleavage, relative activity (ratio to wild type); higher = more cleavage; in vitro, sequencing
# Method in brief: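 For each CPEB3 ribozyme variant, relative activity is its cleaved/total read fraction divided by the unmutated ribozyme's. Barcoded error-prone PCR libraries were transcribed by T7 RNA polymerase (5 hours, 37°C) and held in DNase I for 15 min before an EDTA stop, with cleavage occurring throughout. Template-switching reverse transcription and Illumina sequencing were used to read the RNAs. A 5-read minimum applied, and results are the mean of three batches.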
row,Variant,self-cleavage
1,UAACAGGGGGCCACAGCAGAAGCGUUCACGUCGCGGCCCCUGUCGGAUUCAGGUGAAUCUGCGAAUUCAGCUGUAUACCUC,1.17
2,UAACAGGGGGCCACAGCAGAAGCGUUCACGUCGCCGCCCCUGUCAGAUUCAGGUGGAUCUGCGAAUUCUGCUGUAUAUCUC,0.47
3,UAACAGGGGGCCACAGCAGAAGCGUUCACGUCGCCGCCCCUGUCAGAUUCUGGUGAAUCUGCGAAUUGCGCUGUAUAUCUC,0.16
4,UAACAGGGGGCCACAGCAGAAGCGUUCACGUCGCCGCCCCUGUCAGAUUCUGGAGAAUCUGCGAGUUCUGCUGUAUGUCUC,0.2
5,UAACAGGGGGCCACAGCAGAAGCGUUCACGUCGCGGCCCCUGUCGGAUUCUGGUGAACCUGCGAACUCUGCUGUAUACCUC,0.49
6,UAACAGGGGGCCACAGCAGAAGCGUUCACGUCGCGGCCCCUGUCCGAUUCUGGCGAAUCUGCGAAUUCUGCUGUAUAUCUC,0.68
7,UAACAGGGGGCCACAGCAGAAGCGUUCACGUCGCGGCCCCUGUCGGAUUCUGGUGAAUCUGCGUAUUCUGCAGUAUAUCUC,0.64
8,UAACAGGGGGCCACAGCAGAAGCGUUCACGUCGCCGCCCCUGUCAGAUUCUGGUGAAUCUGCGAAUCCAGCUGUAUAUCUC,0.18
9,UAACAGGGGGCCACAGCAGAAGCGUUCACGUCGCCGCCCCUGUCAGGUUCUGGUGAAUCCGCGAAUUCCGCUGUAUAUCUC,0.28
10,UAACAGGGGGCCACAGCAGAAGCGUUCACGUCGCGGCCCCUGUCCGAUUCUGGGGUAUCUGCGAAUUCUGCUGUAUAUCAC,0.36
11,UAACAGGGGGCCACAGCAGAAGCGUUCACGUCGCGGCCCCUGUCUGAUUCUGGUGAAUCUGCGAGUUCUGCAGUAUAUCUC,0.58
12,UAACAGGGGGCCACAGCAGAAGCGUUCACGUCGCGGCCCCUGUCAGGUUCUGGUGAAUCUGCGAGUUCCGCUGUAUACCUC,0.66
13,UAACAGGGGGCCACAGCAGAAGCGUUCACGUCGCGGCCCCUGUCUGAUUCUGGUGAAUCUGCAAAUUCUGCUGUAAAUCUC,1.38
14,UAACAGGGGGCCACAGCAGAAGCGUUCACGUCGCGGCCCCUGUCGGAUUCUGGUGAAUCUGCGAAUUCUGCAGUAUAUCUC,0.62
15,UAACAGGGGGCCACAGCAGAAGCGUUCACGUCGUAGCCCCUGUCAGAUUCUGGUGAAUCUGCGAAUCCUGCUGUACAUCUC,0.17
16,UAACAGGGGGCCACAGCAGAAGCGUUCACGUCGCGGCCCCUGUCGGAUUCUGGUGAACCUGCGAAUUCUGCUGUACAUCCC,1.08
17,UAACAGGGGGCCACAGCAGAAGCGUUCACGUCGCCGCCUCUGUCAGAUUCUGGUGGAUCUGCGAAUUCUGCCGUAUAUCUC,0.8
18,UAACAGGGGGCCACAGCAGAAGCGUUCACGUCGCCGCCCCCGUCAGAUUCUGGUGAAUCUCCGAAUUCUGCUGUAUAUCGC,0.32
19,UAACAGGGGGCCACAGCAGAAGCGUUCACGUCGCCGCCCCUGUCAGAUUCUGGUGAACCUGCGAAUUCUGCUGUAUAUCCC,0.55
20,UAACAGGGGGCCACAGCAGAAGCGUUCACGUCGCCGCCCCUGUCAGAUUCUGGUGAAUCUGCGAAUCCUGCUGCAUAUCUC,0.21
21,UAACAGGGGGCCACAGCAGAAGCGUUCACGUCGCGGCCCCUGUCUGAUUCUGGAGAAUCCGCGAGUUCUGCUGUAUAUCUC,0.61
22,UAACAGGGGGCCACAGCAGAAGCGUUCACGUCGCCGCCCCUGGCAGAUUCUGGAGAAUCAGCAAAUUCUGCUGUAUAACUC,0.07
23,UAACAGGGGGCCACAGCAGAAGCGUUCACGUCGCCGCCCCUGUCAGGCUCUGGUGAAUCUGCGAAUUCUGCUGUAUAUCUC,0.27

row,Variant,self-cleavage
1,UAACAGGGGGCCACAGCAGAAGCGUUCACGUCGCCGCCCCUGUCAGAUACUGGUGAAACUGCGAAUUCUGCAGUAUAUCUC,0.14
2,UAACAGGGGGCCACAGCAGAAGCGUUCACGUCGCCGCCCCUGUCGGAUUCUGGUGAAUCUGCGAAUUCUGCUGUAUUUCUC,0.4
3,UAACAGGGGGCCACAGCAGAAGCGUUCACGUCGCCGCCCCUGUCAGGUUCUGGUGAGUCUGCGAAUUCUGCUGUAUAUCUC,0.4
4,UAACAGGGGGCCACAGCAGAAGCGUUCACGUCGCCGCCCCUGCCAGAUUCUGGUGAUUCUGCGAAUUCUGCUGUAUAUCUC,0.15
5,UAACAGGGGGCCACAGCAGAAGCGUUCACGUCGCGGCCCCUGUCGGAUUCUGGUGGAUCUGCGAAUUCUGCUGUAAAUCUC,1.24
6,UAACAGGGGGCCACAGCAGAAGCGUUCACGUCGCCGCCCCCGUCAGAUUCUGGUGUAUCUGCGAAUUCUGCUGUAUAUCUC,0.56
7,UAACAGGGGGCCACAGCAGAAGCGUUCACGUCGCCGCCCCUGUCAGAUUCUGGAGAAUCUGCGGAUUCUGCUGUAUAUCUC,0.23
8,UAACAGGGGGCCACAGCAGAAGCGUUCACGUCGCCGCCCCCGUCAGAUUCGGGAGAAUCUGCGAAUUCUGCUGUAUAUCUC,0.69
9,UAACAGGGGGCCACAGCAGAAGCGUUCACGUCGCGGCCCCUGUCUGAUUCUGGUGAGUCUGCGAAUUCUGCCGUAUAUCUC,1.01
10,UAACAGGGGGCCACAGCAGAAGCGUUCACGUCGCCGCCCCUGUCAGAUUCUGGUGAAUCUCCGAAUUCUGCUGUAUAUCCC,0.3
11,UAACAGGGGGCCACAGCAGAAGCGUUCACGUCGCGGCCCCUGUCCGAUUCUGGUGAAUCUGCGUAUUCUGCUGUACACCUC,0.2
12,UAACAGGGGGCCACAGCAGAAGCGUUCACGUCGCCGCCCCUGUCAGAUUCUGGUGAAUCUGCGGACUCUGCUGUAUAUCUC,0.1
13,UAACAGGGGGCCACAGCAGAAGCGUUCACGUCGCGGCCCCUGUCAGGUCCUGGUGAAUCUGCGAACUCUGCUGUAUAUCUC,0.22
14,UAACAGGGGGCCACAGCAGAAGCGUUCACGUCGCGGCCCCUGUCCGAUUCUGCUGAAUCUGCGAAUUCUGCUGUAUAUCUC,0.67
15,UAACAGGGGGCCACAGCAGAAGCGUUCACGUCGCCGCCCCCGUCAGAUUCUGGUGAAUCUGCGUACUCUGCUGUAUAUCUC,0.27
16,UAACAGGGGGCCACAGCAGAAGCGUUCACGUCGCGGCCCCUGUCGGAUUCUGGUGAGUCUGCGAAUUCCGCUGUAUAUCUC,1.11
17,UAACAGGGGGCCACAGCAGAAGCGUUCACGUCGCCGCCCCUGUCAGAUUCUGGUGAAGCUGCGAAUUCUGCUGUAUACCUC,0.35
18,UAACAGGGGGCCACAGCAGAAGCGUUCACGUCGCCGCCCCUGUCAGAUUCUGGUGAAUCUGCGGAUUCUGCUGUAUACCCC,0.16
19,UAACAGGGGGCCACAGCAGAAGCGUUCACGUCGCCGCCCCUGUCAGGUUCUGGUGAAUCUGCGAAUUCAGCUGUAUUUCUC,0.49
20,UAACAGGGGGCCACAGCAGAAGCGUUCACGUCGCCGCCCCUGUCCGGUUCUGGUGAAUCUGCGAAUUCUGCCGUAUAUCCC,0.08
21,UAACAGGGGGCCACAGCAGAAGCGUUCACGUCGCCGCCUCUGUCAGAUUCUGGUGAAUCUGCGAAUUCCCCUGUAUAUCUC,0.12
22,UAACAGGGGGCCACAGCAGAAGCGUUCACGUCGCGGCCCCUGUCUGAUUCUGGUGAAUCUGCGAGCUCUGCUGUAUAUCUC,0.33
23,UAACAGGGGGCCACAGCAGAAGCGUUCACGUCGCCGCCCCUGUCAGAUUCUGGUGAACCUGCGAGUUCUGCUGUAUAUCCC,0.19

row,Variant,self-cleavage
1,UAACAGGGGGCCACAGCAGAAGCGUUCACGUCGCCGUCCCUGUCAGAUUCUGGUGAAUCUACGAAUUCUGCUGUAUAUCUC,0.13
2,UAACAGGGGGCCACAGCAGAAGCGUUCACGUCGCGGCCCCUGUCGGAUUCUGGUGAAUCUGCGAACUCUGCUGUAUAUCUC,1.03
3,UAACAGGGGGCCACAGCAGAAGCGUUCACGUCGCGGCCCCUGUCGGAUUCUGGUGAAUCUGCGAAAUCUGCUGUAUAUCUC,1.17
4,UAACAGGGGGCCACAGCAGAAGCGUUCACGUCGCGGCCCCUGUCUGAUUCUGGUGAAACUGCGAAUUCUGCUGUAUAUCUC,0.26
5,UAACAGGGGGCCACAGCAGAAGCGUUCACGUCGCGGCCCCUGUCGGAUUCUGGUGAAUCUGCGGAUUCUGCUGUAUUUCUC,1.28
6,UAACAGGGGGCCACAGCAGAAGCGUUCACGUCGCGGCCCCUGUCUGAUUCUGGUGAAUCUGCGAAUUUUGCUGUAUAUCUC,1.07
7,UAACAGGGGGCCACAGCAGAAGCGUUCACGUCGCCGCCCCCGUCAGAUUCUAGUGAAUCUGCGAAUUCUGCUGUAUAUCUC,1.1
8,UAACAGGGGGCCACAGCAGAAGCGUUCACGUCGCGGCCCCUGUCGGAUUCUGGUGAAUCUGCGAAUUCUGCUGUAUACCUC,1.4
9,UAACAGGGGGCCACAGCAGAAGCGUUCACGUCGCGGCCCCUGUCGGAUUCUGGUGAAUCUGCGAAUACUGCUGUAUAUCUC,1.02
10,UAACAGGGGGCCACAGCAGAAGCGUUCACGUCGCGGCCCCUGUCUGAUUCUGGUGAAUCUGCGAAUUCUGCAGUAUAUCUC,0.79
11,UAACAGGGGGCCACAGCAGAAGCGUUCACGUCGCCGCCCCUGUCGGAUCCUGGUGAAUCUGCGAAUUCUGCCGUAUACCUC,0.14
12,UAACAGGGGGCCACAGCAGAAGCGUUCACGUCGCGGCCCCUGUCAGGUUCUGGUGAAUUUGCGUAUUCUGCUGUAUAUCUC,0.66
13,UAACAGGGGGCCACAGCAGAAGCGUUCACGUCGCCGCCCCUGCCGGAUUCUGGUGAAUCUGCGAAUCCUGCUGUGUAUCUC,0.05
14,UAACAGGGGGCCACAGCAGAAGCGUUCACGUCGCGGCCCCUGUCGGAUUCCGGUGAAUCUCCGAACUCUGCUGUAUAUCUC,0.37
15,UAACAGGGGGCCACAGCAGAAGCGUUCACGUCGCGGCCCCUGUCGGAUUCUGGUGAAUCUGCGAGCUCUGCUGUAUAUCUC,0.32
16,UAACAGGGGGCCACAGCAGAAGCGUUCACGUCGCGGCCCCUGUCAGGUUCCGGUGAAUCUGCGAGUUCUGCUGUAUAUCUC,0.63
17,UAACAGGGGGCCACAGCAGAAGCGUUCACGUCGCGGCCCCUGUCGGAUUCUGGUGAAUCUGCGAGUUCUGCUGUAUAUCUC,1.1
18,UAACAGGGGGCCACAGCAGAAGCGUUCACGUCGCCGCCCCUGUUAGAUUCUGGAGAAUCUGCGGAUUCUGCUGUAUAUCUC,0.1
19,UAACAGGGGGCCACAGCAGAAGCGUUCACGUCGCGGCCCCUGUCGGAUUCUGGUGAAUCUGCGUAUUCUGCUGAAUAUCUC,1.11
20,UAACAGGGGGCCACAGCAGAAGCGUUCACGUCGCGGCCCCUGUCUGAUUCUGGUGAAUCUGCGGAUUCUGCUGUAUAUCUC,1
21,UAACAGGGGGCCACAGCAGAAGCGUUCACGUCGCCGCCCCUGUCAGAUCCAGGUGAAUCUGCGAAUUCUGCUGUAUAUCUC,0.65
22,UAACAGGGGGCCACAGCAGAAGCGUUCACGUCGCCGCCCCUGUCAGAUUCUGGUGAACCUGCGAAUCCUGCUGUAUAUCUC,0.17
